Screen size: about 310,000 compounds; about 18,000 (5.8%) were called active. This list was built around the results that the source calls inconclusive (neither active nor inactive); the mix of calls is not that of the screen. The call rests on the fitted dose curve; in most records, active means well fitted inhibition curve with a large enough effect; inconclusive means small, poorly fitted or top-dose-only effect, or another doubt; inactive means no such curve, though single readings can be large or run the other way. Potencies of inconclusive entries are left out as doubtful fits.
Assay: Primary qHTS for delayed death inhibitors of the malarial parasite plastid, 48 hour incubation
Conditions: P. falciparum luciferase growth in erythrocytes; series mostly up to 28.7 µM
Procedure, shortened: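 Luciferase-expressing parasites in RBCs, 2% Hct / 0.1% parasitemia final; RPMI 1640 + 0.5% Albumax; 37 C, 5% CO2, one generation; luminescence read-out, lower signal = inhibition.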
With `Cc1cccc(N2CCN(C3=NC(=O)C(=C4CCCCC4)S3)CC2)c1` the Potency was active: 10.4 µM.
With `O=C(c1cccs1)N1CCc2c([nH]c3ccccc23)C1c1ccc(Cl)cc1` (stereo unspecified) the Potency was active: 10.4 µM.
For `CCOc1cccc2cc(C(=O)NCc3ccc(OC)cc3)c(=N)oc12`, the Potency was inconclusive [inhibitor, partial curve, poor fit].
In the case of `COc1ccc(N2CCN(Cc3cc(=O)oc4ccc5ccccc5c34)CC2)cc1`, the Potency is reported as inconclusive [inhibitor, partial curve, poor fit].
With `COC(=O)Nc1c(-c2ccccc2)nc2ccc(Cl)cn12` the Potency was “inactive”.
For `Cc1ccc(C)c(NC(=O)COC(=O)CCNC(=O)c2ccco2)c1`, the Potency was “inactive”.
With `CC(C)[C@H](NC(=O)c1ccccc1)C(=O)OCC(=O)c1ccccc1F` the Potency was “inactive”.
With `Cc1ccc(C(C(=O)NC2CCCCC2)N2CCC3(CC2)OCCO3)cc1` (stereo unspecified) the Potency was inconclusive [inhibitor, full curve, poor fit].
For `O=C(NC(NC(=S)Nc1c(Cl)cccc1Cl)C(Cl)(Cl)Cl)c1cccc([N+](=O)[O-])c1` (stereo unspecified), the Potency was inconclusive [inhibitor, single point].
For `Cc1ccc(N/C(SCc2ccccc2C)=C(/C#N)C(=O)NCc2ccco2)cc1C`, the Potency was inconclusive [inhibitor, single point].
In the case of `CCOc1ccc(NC(=O)NNC(=O)C(C)Oc2ccccc2OC)cc1` (stereo unspecified), the Potency is reported as “inactive”.
With `CC1CCCN(C(=O)CN(C)S(=O)(=O)c2ccc3c(c2)c(=O)n(C)c(=O)n3C)C1` (stereo unspecified) the Potency was inconclusive [inhibitor, single point].
With `COCCCNC(=O)c1cc(C(=O)c2ccccc2Br)c[nH]1` the Potency was inconclusive [inhibitor, single point].
With `CCOc1ccccc1NC(=O)COC(=O)c1cc(C(=O)OC)cc([N+](=O)[O-])c1` the Potency was “inactive”.
For `CC(N)Cc1cn(Cc2ccccc2)c2ccccc12` (stereo unspecified), the Potency was inconclusive [inhibitor, full curve, poor fit].
With `CC(C)c1ccc(NC(=S)N2CCN(Cc3ccccc3)CC2)cc1` the Potency was “inactive”.
For `CC(C)(C)c1ccc(C(=O)N2CCCN(c3ccc([N+](=O)[O-])cn3)CC2)cc1`, the Potency was inconclusive [inhibitor, single point].
For `CCN(CC(=O)NC(=O)NC1CCCCC1)Cc1ccccc1`, the Potency was inconclusive [inhibitor, single point].
In the case of `Cc1cc(=O)oc(C)c1C(=O)Nc1ccc2ncccc2c1`, the Potency is reported as active: 9.28 µM.
With `CCCNc1ncccc1C(N)=O` the Potency was “inactive”.
With `O=C(CCCc1c[nH]c2ccccc12)NCCc1c[nH]c2ccccc12` the Potency was inconclusive [inhibitor, partial curve].
For `O=C(NCc1cccnc1)c1cn(-c2ccccc2)nc1-c1ccccc1`, the Potency was “inactive”.
With `COc1ccc(S(=O)(=O)N2CCOC2CNC(=O)C(=O)NCCc2c[nH]c3ccccc23)cc1C` (stereo unspecified) the Potency was inconclusive [inhibitor, single point].
With `CC(=O)OCCOc1nc(N(C)C)nc(N(C)C)n1` the Potency was “inactive”.
With `C=CCNC(=O)c1ccc(CN(c2ccc(OCC)cc2)S(=O)(=O)c2ccc(C)cc2)cc1` the Potency was active: 7.38 µM.
With `CCc1ccc(NC(=O)CSc2nnc(Cc3cccn3C)n2-c2ccc(OC)cc2)cc1` the Potency was inconclusive [inhibitor, single point].
With `Cc1ccc(NC(=O)c2ccccc2Br)cc1S(=O)(=O)N(C)C` the Potency was inconclusive [inhibitor, partial curve, poor fit].
In the case of `NS(=O)(=O)c1ccc(NNC(=O)c2ccc(F)cc2F)cc1`, the Potency is reported as “inactive”.
With `O=C(CN1C(=O)CCSc2ccc(S(=O)(=O)N3CCOCC3)cc21)Nc1ccccc1Cl` the Potency was inconclusive [inhibitor, full curve].
In the case of `CCCCCCC(=O)N/N=C/c1c(O)n(C(C)CC)c(=S)[nH]c1=O` (stereo unspecified), the Potency is reported as inconclusive [inhibitor, single point].
In the case of `CCC1(c2ccccc2)NC(=O)N(CC(=O)Nc2cccc(S(=O)(=O)N3CCCCC3)c2)C1=O` (stereo unspecified), the Potency is reported as inconclusive [inhibitor, partial curve].
For `COC(=O)C1=C(N)N(c2ccccc2F)C2=C(C(=O)CC(C)(C)C2)C1c1ccc(OC)c(OC)c1` (stereo unspecified), the Potency was “inactive”.
In the case of `CCc1ccc(NS(=O)(=O)c2ccc3[nH]cc(C(=O)NCC4CCCO4)c(=O)c3c2)cc1` (stereo unspecified), the Potency is reported as inconclusive [inhibitor, partial curve].
In the case of `Clc1ccc(-c2cc(C3CCNCC3)[nH]n2)c(Cl)c1`, the Potency is reported as inconclusive [inhibitor, single point].
In the case of `Cc1ccc(SCc2nc(-c3ccccc3)no2)cc1`, the Potency is reported as “inactive”.
In the case of `Cc1cccc(C)c1NC(=S)N/N=C1\CC2CC=CC12` (stereo unspecified), the Potency is reported as inconclusive [inhibitor, single point].
For `CCOC(=O)C1C(=O)C(C(C)=O)C(=O)CC1CC(C)SCC` (stereo unspecified), the Potency was “inactive”.
In the case of `CC(C)(C)NC(=O)CSC(=Nc1ccc(F)cc1)NC#N`, the Potency is reported as “inactive”.
In the case of `O=C(Nc1ccc(Cn2nnc3ccccc32)cc1)c1ccco1`, the Potency is reported as inconclusive [inhibitor, single point].
With `O=C(Cn1cnc([N+](=O)[O-])n1)c1ccc(O)c(O)c1` the Potency was inconclusive [inhibitor, partial curve, poor fit].
In the case of `CCn1c(=S)[nH]c2c(c1=O)C(C)(C)Cc1ccccc1-2`, the Potency is reported as “inactive”.
With `OC(C#Cc1ccccn1)c1cccs1` (stereo unspecified) the Potency was active: 10.4 µM.
In the case of `COc1ccc(-c2cc(C(=O)Nc3cccnc3)c3ccccc3n2)cc1OC`, the Potency is reported as inconclusive [inhibitor, single point].
With `CCN1CCN(CC(=O)N2N=C(c3cccs3)CC2c2ccc(F)cc2)C(=O)C1=O` (stereo unspecified) the Potency was inconclusive [inhibitor, full curve, poor fit].
With `CC1CC(C)CN(C(=O)Cn2c(SCC(=O)N3CCc4ccccc4C3)nc3ccccc32)C1` (stereo unspecified) the Potency was inconclusive [inhibitor, single point].
In the case of `COc1ccc(CCN(C(=O)C(F)(F)F)C(C(=O)NC2CCCCC2)c2ccc(C)s2)cc1` (stereo unspecified), the Potency is reported as inconclusive [inhibitor, single point].

Source: PubChem BioAssay AID504832 (National Center for Advancing Translational Sciences (NCATS), 2011)
Potency means the concentration at half of the fitted maximal effect; tags describe the fitted curve by direction and shape.
